Consider two substances from PMC11329700.

Sequences of proteins named here, by UniProt entry; tags and fusion partners are left off.
UniProt Q9Z0W5: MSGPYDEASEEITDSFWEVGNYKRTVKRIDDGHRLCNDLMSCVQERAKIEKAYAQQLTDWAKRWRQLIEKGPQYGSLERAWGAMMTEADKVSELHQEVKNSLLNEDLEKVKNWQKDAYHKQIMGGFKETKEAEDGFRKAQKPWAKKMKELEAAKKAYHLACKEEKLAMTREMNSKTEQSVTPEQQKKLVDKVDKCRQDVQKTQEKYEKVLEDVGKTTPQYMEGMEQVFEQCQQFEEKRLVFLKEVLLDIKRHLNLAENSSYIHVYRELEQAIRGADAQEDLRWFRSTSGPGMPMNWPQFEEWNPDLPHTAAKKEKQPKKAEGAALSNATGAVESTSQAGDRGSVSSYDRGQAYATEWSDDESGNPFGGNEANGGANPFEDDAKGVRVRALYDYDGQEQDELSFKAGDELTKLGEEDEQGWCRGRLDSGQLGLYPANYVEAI
UniProt O35179: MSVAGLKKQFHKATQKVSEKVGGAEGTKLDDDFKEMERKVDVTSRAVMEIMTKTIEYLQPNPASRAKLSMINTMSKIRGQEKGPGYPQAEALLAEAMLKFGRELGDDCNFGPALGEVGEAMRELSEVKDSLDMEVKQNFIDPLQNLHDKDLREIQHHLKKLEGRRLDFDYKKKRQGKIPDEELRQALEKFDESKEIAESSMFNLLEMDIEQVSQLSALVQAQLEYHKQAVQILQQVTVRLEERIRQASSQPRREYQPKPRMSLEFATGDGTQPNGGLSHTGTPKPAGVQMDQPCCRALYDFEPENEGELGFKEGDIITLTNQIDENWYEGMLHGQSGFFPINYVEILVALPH

Substitutions are numbered along the chain they refer to. No constants are given. Whether binding was seen depends on the method and setting. Binding seen in cells or lysates may run through a third protein. Some results given as binding are weak or reduced against the parent protein; the word gives no strength. For part of these data: Sequences can lack the tags named with a protein.

What all share (test): pull-down; GST fusion proteins on GSH-sepharose beads incubated with pre-cleared rat brain synaptosomal lysate (20 mM Tris pH 7.4, 150 mM NaCl, 1% Triton X-100, 1 mM EDTA, 1 mM EGTA) at 4 °C for 1 h; bound proteins by Coomassie stain or Western blot (some blots quantified by densitometry); only the target purified
In general terms: A western blot detects proteins with antibodies after separation by electrophoresis.

The target in assay [1] is GST-Dyn1xA-PRR (dynamin 1xA proline-rich region, amino acids 746-864) (rat) (UniProt P21575).
The target of assay [2] is T1, GST-dyn1xA-PRR R846A (rat) (UniProt P21575).
T1 sequence: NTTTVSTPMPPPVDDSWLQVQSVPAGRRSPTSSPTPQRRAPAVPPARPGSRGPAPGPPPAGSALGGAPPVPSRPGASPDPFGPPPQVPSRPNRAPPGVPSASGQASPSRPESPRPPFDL

The target of assay [3] is T2, GST-Dyn1xA-PRR 794-864 (rat) (UniProt P21575).
T2 sequence: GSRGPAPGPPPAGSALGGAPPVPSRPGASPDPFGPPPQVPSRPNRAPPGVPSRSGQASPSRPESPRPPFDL

Assay [4] addresses T3, GST-Dyn1xA-PRR 806-864 (rat) (UniProt P21575).
T3 sequence: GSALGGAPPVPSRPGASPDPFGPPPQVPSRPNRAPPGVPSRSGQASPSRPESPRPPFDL

Assay [5] has as its target T4, GST-dyn1xA-PRR 806-864 A839G (rat) (UniProt P21575).
T4 sequence: T3 sequence with A34G

Assay [6] deals with T5, GST-dyn1xA-PRR 806-864 G842A (rat) (UniProt P21575).
T5 sequence: T3 sequence with G37A

In assay [7] the target is T6, GST-dyn1xA-PRR 806-864 P813/816A (rat) (UniProt P21575).
T6 sequence: T3 sequence with P8A, P11A

The target of assay [8] is T7, GST-dyn1xA-PRR 806-864 P816/819A (rat) (UniProt P21575).
T7 sequence: T3 sequence with P11A, P14A

For assay [9], the target named is T8, GST-dyn1xA-PRR 806-864 P833/836A (rat) (UniProt P21575).
T8 sequence: T3 sequence with P28A, P31A

The target in assay [10] is T9, GST-dyn1xA-PRR 806-864 P841/844A (rat) (UniProt P21575).
T9 sequence: T3 sequence with P36A, P39A

The target in assay [11] is T10, GST-dyn1xA-PRR 806-864 R838A (rat) (UniProt P21575).
T10 sequence: T3 sequence with R33A

For assay [12], the target named is T11, GST-dyn1xA-PRR P813/816A (rat) (UniProt P21575).
T11 sequence: T1 sequence with P68A, P71A, A101R

The target of assay [13] is T12, GST-dyn1xA-PRR P816/819A (rat) (UniProt P21575).
T12 sequence: T1 sequence with P71A, P74A, A101R

In assay [14] the target is T13, GST-dyn1xA-PRR P841/844A (rat) (UniProt P21575).
T13 sequence: T1 sequence with P96A, P99A, A101R

The target of assay [15] is T14, GST-dyn1xA-PRR P844A (rat) (UniProt P21575).
T14 sequence: T1 sequence with P99A, A101R

Assay [16] has as its target T15, GST-dyn1xA-PRR S774/778E (rat) (UniProt P21575).
T15 sequence: T1 sequence with S29E, S33E, A101R

Assay [17] addresses T16, GST-dyn1xA-PRR S851/857E (rat) (UniProt P21575).
T16 sequence: T1 sequence with A101R, S106E, S112E

For the substance Syndapin 1 (from UniProt Q9Z0W5 1-441), the binding entry in [1] and in assay [2] was “binds” each time.

As to “Endophilin A1 (from UniProt O35179 1-352)”, the binding entry was “binds” in assay [1]; “binds” in [3]; “binds” in [4]; “binds weakly” in assay [5]; “binds” in [6]; “binds” in [7]. The binding entry in assay [8] was “binds”; in [9], “no binding”; in assay [10] it was “binds”; in [11] it was “binds weakly”; in assay [12], “binds”; in assay [13], “binds”. The binding entry in assay [14], in assay [15], in assay [16] and in [17] was “binds” throughout.
